B1: LINE1-mini (parent)
chain: GGCAGAGCUCAACACAGCGUGGCAAAGUGGCUGUGGCUAGACUGCC

The source gives no read counts; variants with many changes may rest on few reads.

This data set covers variants of B1. In words: self-cleavage, relative activity (ratio to wild type); higher = more cleavage; in vitro, sequencing; the parent is a self-cleaving ribozyme.
As for GGCAGAGCUCAACACAGCGUGGCAACGUGGCGGUAGCUAGACUGCC, the self-cleavage is 0.06. With GGCAGAGCUCAACACAGCGUGGCAACAUGGCUCUGGCUAGACUUCC, the self-cleavage was determined as 0.05. With GGCAGAGCUCAACACAGCGUGGCAAUGUGGCUGUGGAUAGUCUGCC, the self-cleavage was 0.29.

GGCAGAGCUCAACACAGCGUGGCAAGGUGGCUGUGCCUGGACUGCC: the self-cleavage is 0.1. Take GGCAGAGCUCAACACAGCGUGGCAAUGUGGCUGUGGUUAGACAGCC: the self-cleavage was 0.02.

Turning to GGCAGAGCUCAACACAGCGUGGCAAGUACGCUGUGGCUAGACUGCC, the self-cleavage was 0.32. For GGCAGAGCUCAACACAGCGUGGCAACGUGGCUGUUGAUAGACUGCC, the self-cleavage came to 0.04. As for GGCAGAGCUCAACACAGCGUGGCAACUUGGUUGUCGCUAGACUGCC, the figure is 0.03. GGCAGAGCUCAACACAGCGUGGCAAUGUGGGUCUGGCUAGACUGCC: the self-cleavage was 0.05.

For GGCAGAGCUCAACACAGCGUGGCAACGUGUUUGUUGCUAAACUGCC, the self-cleavage amounted to 0.

As for GGCAGAGCUCAACACAGCGUGGCAACGUGGUUGUCGUUAGACUGCC, the self-cleavage was determined as 0.04. Take GGCAGAGCUCAACACAGCGUGGCAACGUGGCUGUGGCUAGACUUUC: the self-cleavage amounted to 0.

As for GGCAGAGCUCAACACAGCGUGGCAAGGUGGCUGUGGCACGACUGCC, the self-cleavage stood at 0.59. In the case of GGCAGAGCUCAACACAGCGUGGCAACGUGUCUGUGGAUAGACUGCC, the self-cleavage amounted to 0.05. The same measure for GGCAGAGCUCAACACAGCGUGGCAACGUGCCUGUUGCUAGACUGCC: 0.11; for GGCAGAGCUCAACACAGCGUGGCAAUAUGGCUGUGGCCAGCCUGCC: 0.04; for GGCAGAGCUCAACACAGCGUGGCAAGGUGGCUGUUGCUAGCCUGCC: 0.03. Turning to GGCAGAGCUCAACACAGCGUGGCAACGUGGCUGAGGCUAGCCUGCC, the self-cleavage came out at 0.63.

Consider GGCAGAGCUCAACACAGCGUGGCAAUGUGGCUGUGGUUAUACUGCC, for which the self-cleavage is 0.21. Regarding GGCAGAGCUCAACACAGCGUGGCAAUGUGGCUGUGGUUACACUGCC, the self-cleavage came out at 0.05. For the variant GGCAGAGCUCAACACAGCGUGGCAAGGUGGCUGUGGCUCGGGUGCC, the self-cleavage is 0.04. As for GGCAGAGCUCAACACAGCGUGGCAAUGUGGCUGUGGCUUGACAUAC, the figure is 0.1; as for GGCAGAGCUCAACACAGCGUGGCAAGGUUGCUGUGACUAGACUGCC, 0.22; as for GGCAGAGCUCAACACAGCGUGGCAACUUGGCUGUGGCUAGACAGCC, 0.07. With GGCAGAGCUCAACACAGCGUGGCAAGUUCUCUGUGGCUAGUGUGCC, the self-cleavage is 0.17.

Turning to GGCAGAGCUCAACACAGCGUGGCAACGUGGCUGUAGCUAGACUGCG, the self-cleavage was 0.06. With GGCAGAGCUCAACACAGCGUGGCAAUGUGGCUGUGGAAAGUCUGUC, the self-cleavage worked out at 0.06.

As for GGCAGAGCUCAACACAGCGUGGCAAUGUGGCUGUGGAUAUACUGCC, the self-cleavage turned out to be 0.23. In the case of GGCAGAGCUCAACACAGCGUGGCAAUUUGGCUGUGGUUAGACUGCC, the self-cleavage was found to be 0.05. As for GGCAGAGCUCAACACAGCGUGGCAAGGUGGCUGUGACUUGACUGCC, the figure is 0.35. Consider GGCAGAGCUCAACACAGCGUGGCAACGUGGCUGUGAGUAGACUGCC, for which the self-cleavage worked out at 0.

As for GGCAGAGCUCAACACAGCGUGGCAAGGUGGUGGUGGCUAGACUGGC, the self-cleavage came out at 0.07. Consider GGCAGAGCUCAACACAGCGUGGCAAGGUGGCUGUGGCUAGACUGUG, for which the self-cleavage turned out to be 0.12. With GGCAGAGCUCAACACAGCGUGGCAAGGUGCCUGUGGCUAAACUGCC, the self-cleavage was determined as 0.17.

As for GGCAGAGCUCAACACAGCGUGGCAAUGUAUCUGUGGCUAGACUGUU, the self-cleavage amounted to 0.19. As to GGCAGAGCUCAACACAGCGUGGCAAGGUGGUUGUGGCUACACUGCC, the self-cleavage was found to be 0.02.

GGCAGAGCUCAACACAGCGUGGCAACGUGGCUUUAGCUAGACUGCC: the self-cleavage is 0.02. GGCAGAGCUCAACACAGCGUGGCAAGGUGGCUGGGGCUAGACUGUC: the self-cleavage came out at 0.03. With GGCAGAGCUCAACACAGCGUGGCAAGGUCGUUGCGGCUAGACUGCC, the self-cleavage stood at 0.06. As for GGCAGAGCUCAACACAGCGUGGCAAGCUAGCUGUGGCUAGACUGCC, the self-cleavage was determined as 0.3. In the case of GGCAGAGCUCAACACAGCGUGGCAACGUGGCUGUGACUAUAAUGCC, the self-cleavage came out at 0.02. In the case of GGCAGAGCUCAACACAGCGUGGCAACGUGACUGUGGGUAGACUGCC, the self-cleavage was determined as 0.01. GGCAGAGCUCAACACAGCGUGGCAAUGUGUCUGUGACUAGACUGCC: the self-cleavage is 0.06. For GGCAGAGCUCAACACAGCGUGGCAAGGAGGCUGGGGCUAGACUGCC, the self-cleavage came out at 0.04. GGCAGAGCUCAACACAGCGUGGCAACGUUGCUGUGGCUAGAUUGCC: the self-cleavage amounted to 0.21.

Take GGCAGAGCUCAACACAGCGUGGCAAGAUGGCCGUGGCUAGACUGCA: the self-cleavage amounted to 0.04.

In the case of GGCAGAGCUCAACACAGCGUGGCAACGUGGCUGUGCUUAGACUGCC, the self-cleavage is 0.02. Regarding GGCAGAGCUCAACACAGCGUGGCAAGGUGGCUGUUGCUUGACAGCC, the self-cleavage turned out to be 0.02.

GGCAGAGCUCAACACAGCGUGGCAACGCGGCUGUGGCUAGUCUUCC: the self-cleavage is 0. As for GGCAGAGCUCAACACAGCGUGGCAACGUGGCCGUGCCUAGACUGCA, the figure is 0.06; as for GGCAGAGCUCAACACAGCGUGGCAACGUGGCUAUGGCUACACUGCC, 0.15. The same measure for GGCAGAGCUCAACACAGCGUGGCAAUAUGGCUGUGGCUAGACUUCC: 0.48; for GGCAGAGCUCAACACAGCGUGGCAAGCUGGCUGUGGCUAGACUCCC: 0.18.

Turning to GGCAGAGCUCAACACAGCGUGGCAAGGUGGCUGUGGCUUGAAUGCC, the self-cleavage came out at 0.02. Turning to GGCAGAGCUCAACACAGCGUGGCAACUUGGCUGUGGCCAGACUGCC, the self-cleavage came to 0.97. Take GGCAGAGCUCAACACAGCGUGGCAAUAUGGCUGUGACUAGACUGCC: the self-cleavage came to 0.22.
